# Laboratory results as given in PubChem BioAssay (NCATS).
# The inconclusive results got no clear call from the source; some entries with a clear call stand among them for comparison. For some of these results: Where the call is inconclusive, the potency comes from a doubtful curve fit. Active and inactive are the calls of the source. Unless noted, the call rests on the fitted dose curve; in most records, active means well fitted curve in the direction sought with a large enough effect; inconclusive means small, poorly fitted or top-dose-only effect, or another doubt; inactive means no such curve, though single readings can be large; an effect the other way counts as inactive or inconclusive.
# Experiments:
# [1] = target: Flap endonuclease 1 (Homo sapiens) (UniProt P39748); test: qHTS Assay for the Inhibitors of FEN1: Confirmatory Assay for Cherry-picked Compounds (AID 720498); settings: FEN1 flap cleavage, TAMRA/BHQ2 fluorogenic DNA substrate; further: potency means the concentration at half of the fitted maximal effect; nearly all actives have a fitted effect of over 60% in size
# Sequence of UniProt P39748 (P39748 whole entry, looked up): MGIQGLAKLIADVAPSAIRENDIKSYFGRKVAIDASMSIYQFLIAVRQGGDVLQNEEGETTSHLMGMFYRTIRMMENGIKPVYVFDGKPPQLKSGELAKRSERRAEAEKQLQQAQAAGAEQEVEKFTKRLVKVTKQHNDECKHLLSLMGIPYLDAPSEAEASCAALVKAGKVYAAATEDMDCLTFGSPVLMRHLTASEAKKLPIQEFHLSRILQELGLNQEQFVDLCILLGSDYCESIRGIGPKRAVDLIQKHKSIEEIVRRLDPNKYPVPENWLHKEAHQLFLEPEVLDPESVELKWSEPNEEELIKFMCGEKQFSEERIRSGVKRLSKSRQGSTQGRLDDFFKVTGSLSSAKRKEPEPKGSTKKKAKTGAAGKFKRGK
# Method in brief: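 Human FEN1 (10 nM reagent) was preincubated with compounds for 15 min at room temperature, then 50 nM final double-flap DNA substrate (5'-TAMRA flap, BHQ-2 quencher strand) was added. Fluorescence (ex 525/em 598 nm) was read at 0 and 15 min.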
# [2] = qHTS Assay for Identification of Small Molecule Agonists for Hypoxia Response Element Signaling Pathway (AID 914; active means well fitted activation curve with a large enough effect in the signal ratio, with a control signal flat, not every such curve was filed as active; inconclusive means small, poorly fitted or top-dose-only effect, or effect the other way, or a change in a side signal; the % refers to the signal ratio; further: top concentration of the series differs between compounds; % of control where 0% means no effect); settings: ME-180 (cervical carcinoma) HRE-bla reporter, beta-lactamase ratio, CoCl2, 17 h; activation: stronger effect = higher value
# Method in brief: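 HRE-bla ME-180 assay for agonist-like enhancement of an EC50 CoCl2 stimulus: 17 h at 37 degrees Celsius, CCF4 for 2.5 h, ratiometric 460/530 nm signal converted to %Activity and fitted to AC50.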
# [3] = target: RecQ-like DNA helicase BLM (Homo sapiens) (UniProt P54132); test: qHTS for Inhibitors of WRN Helicase: BLM Helicase Counterscreen for WRN Inhibitors (AID 720503); settings: Recombinant BLM helicase DNA unwinding, red fluorescence; activity change, negative = inhibition: at 57.1 µM (top of the series); further: potency means the concentration at half of the fitted maximal effect; nearly all actives have a fitted effect of over 60% in size
# Sequence of UniProt P54132 (P54132 whole entry, looked up): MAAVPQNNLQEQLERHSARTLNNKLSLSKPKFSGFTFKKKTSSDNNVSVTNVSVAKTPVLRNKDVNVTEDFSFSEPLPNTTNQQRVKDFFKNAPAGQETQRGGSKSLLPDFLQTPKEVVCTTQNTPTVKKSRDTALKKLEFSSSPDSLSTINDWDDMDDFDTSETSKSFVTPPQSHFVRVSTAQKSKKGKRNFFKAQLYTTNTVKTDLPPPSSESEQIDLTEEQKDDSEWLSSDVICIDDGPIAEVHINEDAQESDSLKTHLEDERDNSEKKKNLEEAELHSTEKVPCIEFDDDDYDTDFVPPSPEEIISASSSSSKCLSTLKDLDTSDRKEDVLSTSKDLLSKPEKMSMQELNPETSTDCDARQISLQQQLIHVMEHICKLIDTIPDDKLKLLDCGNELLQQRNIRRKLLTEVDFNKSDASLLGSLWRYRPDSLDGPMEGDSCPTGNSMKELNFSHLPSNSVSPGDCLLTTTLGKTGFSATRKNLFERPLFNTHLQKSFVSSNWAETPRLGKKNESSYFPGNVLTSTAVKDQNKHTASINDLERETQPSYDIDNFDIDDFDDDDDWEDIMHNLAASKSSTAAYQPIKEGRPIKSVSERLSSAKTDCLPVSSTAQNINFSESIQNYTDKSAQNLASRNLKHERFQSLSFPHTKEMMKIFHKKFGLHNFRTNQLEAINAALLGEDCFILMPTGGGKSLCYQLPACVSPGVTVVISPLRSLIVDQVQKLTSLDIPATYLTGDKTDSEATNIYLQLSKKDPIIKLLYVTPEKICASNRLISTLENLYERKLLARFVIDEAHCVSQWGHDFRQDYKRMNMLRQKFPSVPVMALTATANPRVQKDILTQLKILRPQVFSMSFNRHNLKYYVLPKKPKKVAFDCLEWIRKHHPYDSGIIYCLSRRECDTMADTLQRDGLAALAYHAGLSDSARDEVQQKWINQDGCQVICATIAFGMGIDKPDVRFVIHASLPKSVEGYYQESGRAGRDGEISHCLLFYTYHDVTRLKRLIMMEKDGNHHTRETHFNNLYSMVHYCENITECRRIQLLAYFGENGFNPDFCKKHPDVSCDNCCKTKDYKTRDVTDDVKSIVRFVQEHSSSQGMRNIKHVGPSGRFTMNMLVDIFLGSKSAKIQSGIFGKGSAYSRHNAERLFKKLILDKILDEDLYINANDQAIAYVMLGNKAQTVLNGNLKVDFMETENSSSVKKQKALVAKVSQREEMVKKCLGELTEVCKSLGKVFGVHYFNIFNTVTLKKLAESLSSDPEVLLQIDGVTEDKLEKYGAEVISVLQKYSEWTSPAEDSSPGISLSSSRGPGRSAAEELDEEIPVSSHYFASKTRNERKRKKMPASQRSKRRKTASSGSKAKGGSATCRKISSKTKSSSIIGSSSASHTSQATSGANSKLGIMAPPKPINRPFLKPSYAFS
# Method in brief: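 1 nM BLM, Tris pH 8.0/NaCl/MgCl2/DTT/Tween-20; cpd preinc 15 min RT; start w/ 100 nM DNA + 2 mM ATP final; fluorescence (ex 525/em 598) two reads 15 min apart; normalized to enzyme-free and DMSO controls.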
# [4] = target: DNA polymerase eta (Homo sapiens) (UniProt Q9Y253); test: qHTS for Inhibitors of Polymerase Eta: Confirmatory Assay for Cherry-picked Compounds (AID 720502); settings: Pol eta primer extension, TAMRA/BHQ fluorescence, 10 min; further: potency means the concentration at half of the fitted maximal effect
# Sequence of UniProt Q9Y253 (Q9Y253 whole entry, looked up): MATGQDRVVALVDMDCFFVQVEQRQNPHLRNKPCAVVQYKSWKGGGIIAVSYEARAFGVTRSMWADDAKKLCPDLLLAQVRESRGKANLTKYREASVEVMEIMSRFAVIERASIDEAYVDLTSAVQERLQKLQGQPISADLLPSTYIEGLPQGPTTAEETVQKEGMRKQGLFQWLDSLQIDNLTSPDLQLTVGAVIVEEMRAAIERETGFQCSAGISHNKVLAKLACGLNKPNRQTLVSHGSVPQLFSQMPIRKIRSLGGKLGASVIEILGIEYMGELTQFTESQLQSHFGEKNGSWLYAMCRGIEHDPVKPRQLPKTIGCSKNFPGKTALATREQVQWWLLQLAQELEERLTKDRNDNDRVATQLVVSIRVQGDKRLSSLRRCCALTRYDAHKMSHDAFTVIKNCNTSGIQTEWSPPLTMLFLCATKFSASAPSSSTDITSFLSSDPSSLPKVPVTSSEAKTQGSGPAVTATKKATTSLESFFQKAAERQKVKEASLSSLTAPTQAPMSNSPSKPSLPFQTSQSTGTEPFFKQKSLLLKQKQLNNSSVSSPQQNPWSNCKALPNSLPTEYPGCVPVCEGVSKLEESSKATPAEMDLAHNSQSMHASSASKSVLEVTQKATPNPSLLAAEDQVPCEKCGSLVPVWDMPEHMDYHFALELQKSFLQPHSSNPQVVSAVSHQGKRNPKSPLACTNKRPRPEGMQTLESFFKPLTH
# Method in brief: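 Compounds are preincubated 15 min at room temperature with 10 nM human Pol eta, with buffer-only wells serving as negative control. Adding 50 nM final substrate starts the reaction, and TAMRA fluorescence is read over 10 min.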
# [5] = target: DNA polymerase kappa (Homo sapiens) (UniProt Q9UBT6); test: qHTS for Inhibitors of Polymerase Kappa: Confirmatory Assay for Cherry-picked Compounds (AID 720501); settings: purified Pol-kappa, fluorescent strand-displacement substrate; further: potency means the concentration at half of the fitted maximal effect
# Sequence of UniProt Q9UBT6 (Q9UBT6 whole entry, looked up): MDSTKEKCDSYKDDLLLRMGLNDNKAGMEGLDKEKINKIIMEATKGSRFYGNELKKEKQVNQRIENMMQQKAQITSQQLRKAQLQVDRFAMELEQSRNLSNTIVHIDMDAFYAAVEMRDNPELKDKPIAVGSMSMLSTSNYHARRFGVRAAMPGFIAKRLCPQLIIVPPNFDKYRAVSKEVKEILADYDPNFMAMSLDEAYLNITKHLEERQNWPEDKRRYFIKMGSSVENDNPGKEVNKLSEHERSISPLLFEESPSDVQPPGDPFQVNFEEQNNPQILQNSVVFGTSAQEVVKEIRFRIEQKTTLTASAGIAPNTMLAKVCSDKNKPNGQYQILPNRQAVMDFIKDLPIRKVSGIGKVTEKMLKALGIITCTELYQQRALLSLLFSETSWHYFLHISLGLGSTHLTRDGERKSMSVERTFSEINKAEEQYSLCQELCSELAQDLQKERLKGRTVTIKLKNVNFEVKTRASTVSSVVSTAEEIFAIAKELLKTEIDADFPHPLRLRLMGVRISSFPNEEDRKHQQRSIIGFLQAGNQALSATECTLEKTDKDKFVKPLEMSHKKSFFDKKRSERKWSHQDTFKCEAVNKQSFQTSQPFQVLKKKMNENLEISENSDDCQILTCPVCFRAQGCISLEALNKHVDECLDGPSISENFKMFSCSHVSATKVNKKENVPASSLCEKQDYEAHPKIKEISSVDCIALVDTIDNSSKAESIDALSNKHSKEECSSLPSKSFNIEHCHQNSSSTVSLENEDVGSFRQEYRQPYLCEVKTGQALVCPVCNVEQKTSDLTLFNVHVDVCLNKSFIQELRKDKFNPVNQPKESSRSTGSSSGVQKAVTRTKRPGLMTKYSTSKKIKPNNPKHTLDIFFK
# Method in brief: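 Human Pol-kappa, dispensed at 10 nM, was preincubated with compounds for 15 min at room temperature. Reactions were started with primer/template substrate (50 nM final) carrying a TAMRA reporter strand and BHQ-2-quenched template, and fluorescence (ex 525/em 598 nm) was read at 0 and 10 min.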
# Tags describe the fitted curve by direction and shape.
smiles,measurement,setting,value
O=C(CSc1nnc(-c2ccco2)o1)c1ccc[nH]1,Potency,[1],"inconclusive: 84.9 µM [inhibitor, single point]"
CCN1CCN(c2nc(Nc3ccc(NC(C)=O)cc3)nc(Nc3ccc(NC(C)=O)cc3)n2)CC1,Potency,[1],"inconclusive: 53.6 µM [inhibitor, partial curve]"
COc1cc(-c2ccc3ncnc(NCc4nc(C)cs4)c3c2)cc(OC)c1OC,Potency,[1],"inconclusive: 42.6 µM [inhibitor, partial curve]"
NS(=O)(=O)c1ccc(N=Nc2c(O)c(C(=O)O)cc3ccccc23)cc1,activation,[2],inconclusive: -40.3%
O=C(O)CCCNc1cc(N2CCN(C3CCCCC3)CC2)c2noc3c2c1C(=O)c1ccccc1-3,Potency,[3],active: 6.07 µM
Cc1cccc(Oc2ccc3c(c2)Oc2ccccc2NC3=O)c1,Potency,[4],"inconclusive: 95.3 µM [inhibitor, single point]"
COc1ccc(-n2c(C)cc(/C=C3\C(=N)N4N=C(CC(=O)N5CCOCC5)SC4=NC3=O)c2C)c(OC)c1,Potency,[4],"inconclusive: 84.9 µM [inhibitor, single point]"
Cc1ccc(C2C(/C=C3/SC(=S)NC3=O)=C(c3cccs3)Oc3ccccc32)cc1 (stereo not drawn),Potency,[5],"inconclusive: 84.4 µM [inhibitor, single point]"
same,Potency,[4],"inconclusive: 84.9 µM [inhibitor, single point]"
O=C(Nc1nnc(S(=O)(=O)N2CCOCC2)s1)c1ccccc1,Potency,[5],active: 37.7 µM
same,Potency,[4],"inconclusive: 84.9 µM [inhibitor, single point]"
Cc1cccc(-n2c(C)cc(C(=O)C(=O)Nc3nncs3)c2C)c1,Potency,[5],"inconclusive: 47.4 µM [inhibitor, partial curve, poor fit]"
same,Potency,[4],"inconclusive: 75.7 µM [inhibitor, single point]"
